Reference: the supplement of paper PMC12217912
The list shows a part of the results. Sequences were assembled here from the parent chain. Inactive controls read about 0.05.

B1: TEV protease; numbered along this chain (parent)
chain: MGESLFKGPRDYNPISSSICHLTNESDGHTTSLYGIGFGPFIITNKHLFRRNNGTLVVQSLHGVFKVKDTTTLQQHLVDGRDMIIIRMPKDFPPFPQKLKFREPQREERICLVTTNFQTKSMSSMVSDTSCTFPSGDGIFWKHWIQTKDGQCGSPLVSTRDGFIVGIHSASNFTNTNNYFTSVPKNFMELLTNQEAQQWVSGWRLNADSVLWGGHKVFMVKPEEPFQPVKEATQL

Variants of: B1
Test: raw area under fraction-flipped curve 0-4 h after induction (AUC4h, not background-subtracted), DNA-recorder readout of cleavage of the substrate (dimensionless); higher = more cleavage of the substrate by the protease variant
Settings: temperature: 34 °C; time window: 0-4 h after rhamnose induction
Protocol: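 In vivo DNA recorder in E. coli TOP10(DE3) ΔrhaA at 34 °C. Each TEVp single-site mutant (parent TEVp 0) is paired with a single-site variant of the 7-mer TEVs (canonical ENLYFQ|S). The substrate sits between flexible linkers in a Bxb1-sfGFP-TEVs-SsrA fusion, so cleavage stabilises Bxb1 and speeds flipping of a recombination array, read by NGS. The value is the raw area under the fraction-flipped curve over 0-4 h after rhamnose induction (AUC4h), with ≥20 reads per time point. It is not background-subtracted; inactive controls average about 0.047.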
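Also: Bxb1 expression induced with 0.2% (w/v) L-rhamnose at OD600 near 0.5, cultures sampled hourly, flipped fraction per protease–substrate barcode pair counted by paired-end Illumina sequencing.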

Variant | area with substrate ENLYAQS | area with substrate ENLYEQS | area with substrate ENLYGQS | area with substrate ENLYKQS | area with substrate ENLYNQS | area with substrate ENLYPQS | area with substrate ENLYRQS | area with substrate ENLYVQS | area with substrate ENLYWQS | area with substrate ENLYDQS | area with substrate ENLYHQS | area with substrate ENLYIQS | area with substrate ENLYSQS | area with substrate ENLYTQS | area with substrate ENLYCQS | area with substrate ENLYMQS | area with substrate ENLYQQS | area with substrate ENLYLQS | area with substrate ENLYYQS
F101P | 0.0625 | 0.0591 | 0.044 | 0.0603 | 0.047 | 0.0469 | 0.075 | 0.0512 | 0.0604 | – | – | – | – | – | – | – | – | – | –
P134M | 0.0415 | 0.0608 | – | – | – | 0.0778 | – | 0.0931 | 0.0764 | 0.0548 | 0.0675 | 0.0993 | 0.0696 | 0.0575 | – | – | – | – | –
M125F | 0.0751 | 0.0923 | 0.0778 | 0.0394 | 0.0619 | 0.0884 | 0.0887 | – | 0.0778 | 0.0522 | 0.094 | 0.139 | 0.068 | – | 0.0743 | 0.0745 | 0.0702 | – | –
T119K | 0.0732 | – | 0.0569 | 0.0517 | 0.0574 | – | – | – | – | 0.0767 | 0.0614 | – | 0.0663 | – | 0.0851 | 0.0968 | 0.0644 | – | –
T119N | 0.0657 | 0.0488 | 0.0707 | – | 0.115 | – | – | 0.0986 | – | 0.0799 | 0.0656 | – | – | – | – | – | – | 0.118 | 0.0695
E108R | 0.0469 | 0.0399 | 0.0514 | 0.0571 | – | 0.0634 | – | 0.0633 | 0.0555 | 0.0603 | 0.0614 | – | 0.0797 | – | – | 0.0613 | 0.0776 | – | –
E108W | 0.0514 | 0.0493 | 0.0516 | 0.0549 | 0.0614 | 0.0612 | 0.0465 | 0.0635 | 0.0446 | 0.0574 | 0.05 | 0.0645 | – | 0.0511 | – | 0.0482 | 0.0614 | – | 0.063
F117I | 0.0951 | 0.0516 | 0.0672 | 0.055 | – | – | 0.061 | – | – | – | – | 0.0986 | 0.0784 | 0.0608 | 0.109 | 0.0999 | 0.0728 | – | –
I139K | 0.0586 | 0.059 | – | 0.0385 | 0.0646 | – | – | 0.118 | 0.0592 | 0.0532 | – | 0.077 | – | 0.0837 | – | 0.0523 | 0.0461 | – | –
V126K | 0.0723 | 0.0588 | 0.0668 | 0.0823 | 0.0711 | 0.0788 | – | – | 0.0736 | 0.0612 | 0.0701 | 0.15 | 0.0656 | 0.107 | 0.103 | 0.0821 | – | 0.0932 | –
E103N | 0.0786 | – | – | – | – | – | – | – | – | 0.0613 | 0.0894 | – | – | – | 0.073 | – | 0.0812 | – | 0.0654
R102V | 0.0494 | 0.0389 | 0.0626 | 0.0624 | 0.0462 | 0.0737 | 0.0536 | – | 0.0354 | 0.0514 | 0.0293 | 0.0469 | 0.0493 | 0.0402 | – | 0.0381 | – | 0.0493 | 0.0659
R102F | 0.021 | – | 0.0558 | 0.0218 | 0.0637 | 0.0862 | – | – | – | – | – | – | 0.0432 | – | – | – | – | – | –
S169H | 0.0696 | 0.0552 | 0.0636 | – | 0.0524 | 0.0566 | – | – | – | 0.0513 | – | – | 0.0609 | – | 0.0434 | – | 0.0521 | – | 0.0522
T114S | 0.073 | – | 0.07 | 0.0632 | 0.0617 | 0.0747 | 0.072 | 0.136 | 0.0721 | – | – | – | 0.0746 | – | – | – | 0.0507 | – | –
T114G | 0.0624 | 0.0677 | 0.0818 | – | 0.0716 | – | 0.0678 | 0.0984 | 0.0752 | 0.0362 | 0.0682 | 0.162 | – | – | 0.109 | 0.0784 | 0.0811 | – | –
Q97M | 0.0757 | 0.0651 | 0.0696 | 0.0592 | 0.0709 | 0.0839 | 0.0647 | 0.112 | 0.07 | 0.063 | 0.0701 | 0.0999 | 0.0711 | 0.0696 | – | – | 0.0716 | – | –
Y179P | 0.0591 | 0.0449 | 0.0675 | 0.0344 | 0.0685 | 0.0492 | 0.0434 | 0.0553 | – | 0.0496 | 0.0613 | 0.0521 | 0.0458 | 0.0447 | 0.0558 | – | – | – | –
Y179H | 0.0571 | 0.0827 | 0.0617 | – | 0.0621 | 0.0701 | 0.0613 | 0.0747 | 0.0618 | 0.0646 | 0.0585 | 0.0451 | – | – | – | 0.0674 | 0.0584 | – | 0.0623
S158C | 0.065 | 0.0579 | 0.0566 | 0.0603 | – | 0.0657 | 0.0602 | – | 0.0729 | 0.0514 | 0.052 | 0.127 | – | – | 0.0798 | 0.0623 | – | – | 0.0668
Q151V | 0.1 | 0.0636 | 0.0584 | 0.0518 | 0.0733 | 0.0479 | – | 0.0914 | 0.0754 | – | 0.0917 | – | – | 0.0717 | 0.0766 | 0.0766 | 0.0651 | – | 0.065
G166H | 0.051 | – | – | 0.0724 | – | 0.0555 | 0.0496 | 0.047 | 0.0528 | 0.0458 | 0.0429 | 0.0497 | – | – | 0.0521 | 0.04 | 0.0543 | – | 0.0459
N177R | 0.0958 | 0.0793 | – | 0.0515 | 0.0799 | 0.0737 | 0.0627 | – | 0.0963 | 0.0478 | 0.0723 | 0.172 | – | 0.0995 | 0.112 | – | – | – | –
W141D | 0.0634 | 0.0741 | – | 0.0557 | 0.0554 | 0.0625 | – | 0.0658 | – | – | 0.0592 | – | – | – | – | 0.0546 | – | – | 0.062
W141K | 0.0671 | 0.0602 | 0.0542 | 0.0478 | – | 0.0565 | – | 0.056 | 0.0571 | – | 0.0396 | – | – | – | – | – | – | – | –
D161L | 0.0497 | – | 0.0665 | 0.0374 | 0.0638 | 0.0546 | 0.0563 | 0.0661 | 0.0505 | – | 0.0505 | 0.0649 | – | 0.0438 | 0.0645 | 0.0594 | 0.0697 | 0.0663 | 0.0476
L156F | 0.0497 | 0.061 | – | 0.0238 | 0.0523 | 0.0684 | 0.066 | – | 0.0562 | 0.0628 | 0.0537 | 0.072 | – | 0.0513 | – | – | 0.0866 | 0.0733 | –
R106C | 0.072 | 0.109 | – | 0.0555 | 0.0794 | – | 0.0532 | – | – | 0.06 | 0.0686 | – | – | – | 0.0901 | 0.0899 | 0.069 | – | 0.0592
Q146E | 0.0642 | – | 0.0536 | 0.0676 | 0.067 | 0.0581 | 0.0591 | 0.103 | 0.0972 | 0.0737 | 0.0689 | – | – | 0.0823 | – | 0.0926 | 0.0663 | 0.085 | 0.0679
